# From the supplement of paper PMC11417369
# The list shows a part of the results.
# Test system: PfAP2-HC AP2 domain (GST-tagged)
# Test: gcPBM binding intensity (ln(normalized median fluorescence intensity)); higher = stronger DNA binding
# In short: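 DNA-binding domains from P. falciparum, fused to GST and produced in E. coli, were put on an Agilent 4 × 180k double-stranded probe array for 1 h in 1× PBS holding 1% milk, 0.2 mg/ml BSA, 0.5% salmon testes DNA and 0.03% Triton X-100. Probes were primer-extended, 36 bp long and drawn from intergenic genomic regions, with negative controls included. After Alexa488 anti-GST antibody detection and a 488 nm scan, binding intensity was set as the highest Masliner-normalised natural-log median intensity across replicate spots of either probe orientation.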
row,Sequence,gcPBM binding intensity (ln)
1,AAATAAAATAAAATAAAATAAAATAAAATAAAATAA [XGTACX_negctrl_site142],9.39
2,AATATCTGAAAATAAAGTACAAACATATTATAAATA [XGTACX_site5738],9.67
3,TATTTCAAATGTTATGTGCACATATTAATCCTACTT [GTGCAC_site9738],9.8
4,TACTTATTTGATTGGGTGCATATATATAGTATGTAT [GTGCAC_site9845],9.75
5,AATAATAATTTAAAAAGTACATTCTAATAAACACGT [XGTACX_site1444],9.75
6,ATTATTGCAATTTAATGTACATAATACAAATTTGCC [XGTACX_site2729],9.61
7,AATGAATAAATAAACACACACACATATATATATATG [CACACA_site18],10.7
8,TATACGTATACCTATACACACATATATATATATATA [CACACA_site1273],9.93
9,AATAATAATAGAAACACACACACATTTTTAAGAATA [CACACA_site6692],10.5
10,TGAAAAAAAAAATGCACACGCATACAGATAATATGT [CACACA_site4526],9.97
11,GATGAAATATCATTACGTACACAATAGTTTGTATTT [XGTACX_site5143],9.88
12,TCCTTAAAAAAACCTTAACACACATAAACTATAATT [CACACA_site9001],9.77
13,TTTTTTTTTAAGTTTGCACACATGGAAGACAAAAAT [CACACA_site2505],9.67
14,ATGAATGAATACGTTTTACACACTTGAATATAATTT [CACACA_site8237],9.7
15,GTATATTGTACCATCACACATGTAAAACATAGATGT [CACACA_site5359],9.78
16,AACATAACAAAAAAAAAAAAAAATATATATATATAT [TGCATGCA_negctrl_site370],10.1
17,TATTTCACAAAAAAAAAAAAAAAAAAGAAGCAAAAA [CACACA_negctrl_site1040],9.34
18,TATTTTATATACAGTGGTACTTTTTTTTTTTTTTTT [XGTACX_site2475],9.58
19,AAAAAAAAAAAAAAATCACACACAATATGAATTTAT [CACACA_site8100],9.83
20,ACATATATATTATAAGCATGCATGAGAAAATTTTTA [TGCATGCA_site1054],9.87
21,AATTGCTTCAAAATTAAACACACACTAATAAAAAAA [CACACA_site8855],9.93
22,AAAAAAAAAAAAAAAACACACATTTGAAGAAAAAAA [CACACA_site7389],9.89

row,Sequence,gcPBM binding intensity (ln)
1,TAATACATAAATAATGTGCACATGGAAATATATCTT,10.2
2,TGTAATACATGTTGTTGTACAATATCTTTAACTTTT [XGTACX_site1219],9.79
3,TATTGTAAAAAAGCAAAATTTATCACCTCCTTATTT [CACACA_negctrl_site172],9.58
4,TATAACTATGGGTGTACACATTAATCGTTTTTCTTT [CACACA_site5196],9.84
5,TACACAAAAATAAACACACACACATATAAATAAATA [CACACA_site6599],10.4
6,CCACTAAAGGCATATACACACATTTTTTAAATTGCC [CACACA_site2839],9.77
7,ATTTATATAAAATTAAAATAATACAAATTTATTCAT [GTGCAC_negctrl_site305],9.27
8,TTTTCGCTTTTATAAAATTATATGAAAAAACTAAAA [XGTACX_negctrl_site139],9.15
9,TTATGGAAAAATATAACACACAATGATTTTTTATAA [CACACA_site1831],9.64
10,TTTTTTACATTCTGCACACAATTTATTTTTTTTTTT [CACACA_site4188],10
11,CAAATTTTTAAAAATGCATGTTCATCCATCCCATAT [TGCATGCA_site467],9.56
12,TTTGTATGATCATAAAGTACTAATTTACATTCAGCA [XGTACX_site8596],9.49
13,ATATATATATATAGAAGTACTCTTATATATTTTATA [XGTACX_site1384],9.54
14,AAAAAAAAAAAAAATACACACACATAAAAAAAAAAA [CACACA_site8555],10.9
15,GATATGGAATATATGTGTACATATATATATATTATA [XGTACX_site1724],9.77
16,GTAGAATCAGTATTCACACATAAATGTATCCAAATG [CACACA_site5395],9.6
17,TTTTCATTCTTATATAAATATTATTTTATATAAAAT [GTGCAC_negctrl_site674],9.4
18,ATATATGAAAATATATGTACACAACATATAAAATAG [XGTACX_site5132],9.94
19,AATTATATACCATGCACACAAATATTCATACAGGAA [CACACA_site4057],9.97
20,AAAATATATCAAAACACACTCACATATAATACTTAC [CACACA_site6031],10.4
21,TATATACTTATATACTGTACTCATCATCTTTTAAAG [XGTACX_site6099],9.45
22,TAATATATCTATAATACACACTATTCTAATCACATA [CACACA_site6731],9.65

row,Sequence,gcPBM binding intensity (ln)
1,TTTTTTTTTTTTTAAACATGCAAAATATATAATTTT [TGCATGCA_site633],9.26
2,TAGAAACTATGTAATGCACACCAAAATAAAATTATT [CACACA_site8578],9.89
3,TTTTGGATACTTCATTTGTCCTGTTTTTTTTTTTTA [CACACA_negctrl_site399],9.71
4,ATATACTATTAACCACATATGTGTGTTAATTTATAT [GTGCAC_negctrl_site315],9.79
5,TTGAACCCCACTAACACACACACGCACGCTCAGAAA [CACACA_site2983],10.4
6,ATATTAATTATAACTTGTACGTAAAAGGAAAACAAT [XGTACX_site3269],9.76
7,TGCTATTTCATATTCTGTACTAAAACAAGATAATAA [XGTACX_site3852],9.31
8,AACACACACATATATATATATATATATATATATATA [GTGCAC_negctrl_site573],10.4
9,TTTTTAATATTGTATGCATGTCGTAATAAAAAATTT [TGCATGCA_site259],9.45
10,ATAATAAACATATATGTACACACATATACATATATA [CACACA_site8924],9.83
11,TATACATTTATGTACACACACATATAGGTATATTTA [CACACA_site7408],10
12,AAAATATAATATATTACACACATATATTTTATAAGT [CACACA_site668],9.82
13,TTTTTTTAACGGTGTGCACACAATATACAGAAAAAA [CACACA_site1415],10.3
14,ATTATATATATTTATGCACACAAAATATATTATATA [CACACA_site9244],9.64
15,TATATACATTTATATACACACCTATATTTATTTATA [CACACA_site7014],9.81
16,TATATTGAAAATAAAACATGCAATCACTCATACATA [TGCATGCA_site248],9.63
17,CAACAATTTCGTCATACACACATTCAGAATCTATAT [CACACA_site7171],9.84
18,ATGTACCTATTTCATACACACACACCCACAAACAAA [CACACA_site8232],10.4
19,TTTAAACGTTATATAGTGCATGTCATATTTTATTAT,9.76
20,TACGTAATAATATGCACACAAATAAACTTTATAAAT [CACACA_site3501],9.97
21,CAAAAAAGTAAAACGTGTACATATATACATAAAAAT [XGTACX_site5639],9.86
22,CTTTTTTATATCTCTACACACATTTATAACAATTTG [CACACA_site1398],9.87

row,Sequence,gcPBM binding intensity (ln)
1,TATGTTGGTTCTTTTAGTACATAATTACTAAATGTA [XGTACX_site8616],9.66
2,AAAACATACATATATACACACATATATATATATATA [CACACA_site1852],10.3
3,CAAACTACAAAATTTCGTACGCATATATTTCAAGTA [XGTACX_site5154],9.67
4,TAATTTCTTATGTGCTATCTTATATAGAATTAATTT [CACACA_negctrl_site1726],9.39
5,TATAAAAAATAAAATACACACACATATATATATATA [CACACA_site8365],10.6
6,TGCACAAAATTATGCACACACCTAAAATTAATTTTT [CACACA_site5596],9.8
7,GGCAATGATTTTAGGTGTACTTAAAAATCAAATTAA [XGTACX_site8587],9.44
8,ATTCTAATCATATACACACCCATATATATATATATA [CACACA_site1774],9.88
9,TATATATTAATATGCACACACAAGAAGTAATTATAA [CACACA_site3193],10.2
10,ATTATATAACAAAATAGTACATATATTTATTACATC [XGTACX_site336],9.58
11,GGCATACACGGACACACACACACACCGACATATATA [CACACA_site4493],11.5
12,AGCAGTCAGCAGGACAGTACACAGTAGCCAGGAAAT [XGTACX_site4877],9.52
13,AAAAAAAAAATTTAGGTGCATACAAATAAATTATAT [GTGCAC_site9521],9.69
14,TTATTCTAAAAAGGGTGTACACAAACGAATGGAAAA [XGTACX_site5662],9.84
15,ATGGCTAAAAGTTGCACACACACAAAAAAAAAAAAA [CACACA_site3289],10.2
16,TAGGAAAAGAAAAGCACACACATAAATAGATATATA [CACACA_site6382],10.3
17,ATATATATATATATATATATAATTTTTTTTGTTTTT [TGCATGCA_negctrl_site453],10.1
18,GATATCAAAAAGATGGGTACATATATTTAAGTTCAT [XGTACX_site3822],9.66
19,TATATTATTAATTAGGGTACAAAAAAAAAATTTTTT [XGTACX_site7762],9.34
20,TTTTGAAAAAGTTGCACACAAAATTTAAAAAAAAAA [CACACA_site1632],9.75
21,TTAAATAGAAATAAGACTAACAATGAACCAAAAAAA [CACACA_negctrl_site991],9.88
22,TTTTCATTTGAAAGTCGTACAAGTTCGAAAAAAGGA [XGTACX_site6840],9.7
